Laboratory results published in PubChem BioAssay AID504832 (National Center for Advancing Translational Sciences (NCATS), 2011).
The campaign covered roughly 310,000 compounds. About 18,000 (5.8%) were called active. The inconclusive results got no clear call from the source; some entries with a clear call stand among them for comparison. The call rests on the fitted dose curve; in most records, active means well fitted inhibition curve with a large enough effect; inconclusive means small, poorly fitted or top-dose-only effect, or another doubt; inactive means no such curve, though single readings can be large or run the other way. No potency is given beside an inconclusive call; the fits are too rough.

Assay: Primary qHTS for delayed death inhibitors of the malarial parasite plastid, 48 hour incubation
Settings: P. falciparum luciferase growth in erythrocytes; series mostly up to 28.7 µM; activity change, negative = inhibition: at the top concentration
Outline: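 Parasite viability was followed by luminescence of a genomically integrated firefly luciferase. Cultures held 0.1% parasitemia at 2% hematocrit (final), incubated under 5% CO2 at 37 C.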
On the % scale 0 is the no-effect control and ±100 the full control effect; potency means the concentration at half of the fitted maximal effect; tags describe the fitted curve by direction and shape.

SMILES	Potency	activity change, negative = inhibition
CN(C(=O)CCl)C1CCCc2ccccc21 (configuration not stated)	inconclusive [inhibitor, partial curve, poor fit]	
Cc1ccccc1CSCc1ccc(C(=O)NCCCN2CCOCC2)o1		inactive: 18.4%
CCCn1c(N)c(C(=O)CSc2nc(N)cc(=O)[nH]2)c(=O)n(C)c1=O	inconclusive [inhibitor, partial curve]	
COc1cccc(/C=N/n2c(=S)n(C)c3cc(C)c(C)cc32)c1OC	inconclusive [inhibitor, single point]	
Oc1ccc(N=Nc2c(O)ccc3ccccc23)cc1	inconclusive [inhibitor, single point]	
O=C(Nc1ccc(Oc2cccc(C(F)(F)F)c2)nc1)c1ccccc1	active: 10.4 µM	
O=C(/C=C/c1cc[n+](CC(=O)c2ccc3cccc4c3c2CC4)cc1)c1ccc2cccc3c2c1CC3		inactive: 1.48%
C=Cn1ccnc1P(=S)(c1ccc2c(c1)c1ccccc1n2CC)c1nccn1C=C	active: 2.94 µM	
COc1ccc(C2c3[nH]c4ccccc4c3CCN2C(=O)Cc2nonc2C)c(F)c1 (configuration not stated)	active: 10.4 µM	
CCN(CC(=O)Nc1ccccc1-c1ccccc1)Cc1nc2ccccc2c(=O)[nH]1	inconclusive [inhibitor, single point]	
CCC1Nc2ncnc(N3CCN(c4ccccc4)CC3)c2N(Cc2ccc(OC)cc2)C1=O (configuration not stated)	active: 11.7 µM	
O=C(Cc1cccc(F)c1)Nc1ccc2c(c1)CCC2		inactive: 35.2%
COc1cc(C)c(CN2CCCCC2CO)cc1C (configuration not stated)	inconclusive [inhibitor, single point]	
Oc1ccc(/C=N/N2CCN(C3c4ccccc4-c4ccccc43)CC2)c(O)c1		inactive: -4.06%
Cc1cc(C(F)F)n2nc(C(=O)Nc3c(F)cc(F)cc3Br)nc2n1		inactive: 30.7%
Cc1[nH][nH]c(=O)c1N=Nc1ccc(F)cc1		inactive: 0.671% [at 0.00184 µM]
O=C(Cc1ccc(F)cc1)N1CCOCC1		inactive: 10.2%
CCCCC(=O)NC(c1ccc(N(CC)CC)cc1)c1ccc2cccnc2c1O (configuration not stated)	inconclusive [inhibitor, full curve, poor fit]	
CCN(c1ccccc1)S(=O)(=O)c1cccc(C(=O)NCC(c2cccs2)N2CCOCC2)c1 (configuration not stated)	active: 14.7 µM	
COc1ccccc1NC(=O)CSc1ccc2nnc(CCNC(=O)c3ccccc3)n2n1	inconclusive [inhibitor, single point]	
CCN(CC)c1ccc(CN2CCCCCC2)cc1	inconclusive [inhibitor, single point]	
CC1CCCCN1C(=O)C1CCCN(S(=O)(=O)c2cccc3nsnc23)C1 (configuration not stated)	inconclusive [inhibitor, single point]	
COc1cccc(-c2nc(CS(=O)CC(=O)N3CCC4(CC3)OCCO4)c(C)o2)c1 (configuration not stated)		inactive: 29.3%
COc1cc(-c2cccs2)cc(=O)c2c(C)oc(C)c12	inconclusive [inhibitor, single point]	

SMILES	Potency	activity change, negative = inhibition
Cc1ccc2[nH]c(CCN(C)C)c(CC#N)c2c1	inconclusive [inhibitor, single point]	
CC12CCC(=O)N1C(C(=O)Nc1ccc(Cl)c(Cl)c1)CS2 (configuration not stated)	inconclusive [inhibitor, partial curve, poor fit]	
CCNC(=O)CSc1nc2ccccc2c(=O)n1-c1cc(OC)ccc1OC	inconclusive [inhibitor, single point]	
Cn1c(N)c(C(=O)COC(=O)c2cc(C(F)(F)F)nc3ccccc23)c(=O)n(C)c1=O	inconclusive [inhibitor, partial curve, poor fit]	
CC(=O)N1CCCc2cc(S(=O)(=O)N3CCC(C)CC3)ccc21		inactive: -10.9%
Cc1ccc(NC(=O)COc2cccc(Oc3ccccc3)c2)cc1S(=O)(=O)N1CCOCC1	active: 10.4 µM	
COC(=O)c1nnn(-c2nonc2N)c1CSc1nnc(N)s1		inactive: -13.5%
CCOC(=O)c1c(NC(=O)CSc2ncccn2)sc2c1CCN(Cc1ccccc1)C2	inconclusive [inhibitor, partial curve, poor fit]	
CC(C)Sc1cc(N2CCOCC2)nc(-c2ccc(Cl)cc2)n1	inconclusive [inhibitor, partial curve, poor fit]	
O=C(NC1CC1)C1CCN(S(=O)(=O)c2ccc(Cl)cc2)CC1	active: 1.65 µM	
O=C(CC1C(=O)NCCN1Cc1ccc(-c2ccccc2)cc1)NCc1ccccc1 (configuration not stated)		inactive: -5.64%
O=C(Nc1cccc(Cl)c1)NC1CCN(C2CCCCC2)C1 (configuration not stated)	inconclusive [inhibitor, single point]	
CC(=O)Nc1ccc(NC(=O)c2oc3cc(C)c(C)cc3c2C)cc1		inactive: -12.9%
COc1ccc(N2CCN(c3nc(Nc4ccc(C)c(F)c4)nc(N4CCCC4)n3)CC2)cc1	inconclusive [inhibitor, full curve, poor fit]	
Cc1ccc(-c2nc(CS(=O)(=O)CC(=O)N3CCN(C)CC3)c(C)o2)cc1		inactive: 6.63%
Cc1c(CCO)c(=O)[nH]n1S(=O)(=O)c1ccccc1	active: 3.29 µM	
S=C(NCCc1ccccn1)Nc1ccc(Cl)cc1		inactive: 22.3%
C=CCN(c1ccccc1)S(=O)(=O)c1cc2c(cc1C)N(C)CCO2	inconclusive [inhibitor, single point]	
Oc1ccc(Cl)c(Cl)c1		inactive: 6.9%
Cc1ccc(S(=O)(=O)N2CCCCC2)cc1NC(=O)COC(=O)c1ccc(O)cc1	inconclusive [inhibitor, partial curve]	
Cc1ccc(NS(=O)(=O)c2ccc(C(=O)N3CCC3)cc2)cc1	inconclusive [inhibitor, single point]	
CC(C)(C)c1ccc(N2C(=O)CSC2c2cccnc2)cc1 (configuration not stated)	active: 1.17 µM	
O=C(NCCc1ccc(F)cc1)c1ccc(S(=O)(=O)N2CCCC2)cc1	inconclusive [inhibitor, single point]	
COc1ccc(CCCNC(=O)C2CCC(=O)N(Cc3ccccc3F)C2)cc1 (configuration not stated)		inactive: -19.8%

SMILES	Potency	activity change, negative = inhibition
CC(C)CN(CC(C)C)CC(O)COc1ccc([N+](=O)[O-])cc1 (configuration not stated)	active: 11.7 µM	
Cc1nn(CC(=O)NCCCN2CCCCC2C)c(=O)c2cccn12 (configuration not stated)		inactive: 28.4%
CCCN(CCC)S(=O)(=O)c1ccc(C(=O)OCCN2C(=O)c3cccc4c(N5CCOCC5)ccc(c34)C2=O)cc1	inconclusive [inhibitor, partial curve, poor fit]	
COc1ccc2nc(/C=N/NC(=O)CCNC(=O)OC(C)(C)C)ccc2c1	inconclusive [inhibitor, partial curve]	
COc1ccc(C(=O)Nc2ccccc2C(=O)N/N=C/c2ccccn2)cc1OC	active: 4.15 µM	
O=C(Cn1ncc2c3ccccc3n(Cc3ccccc3)c2c1=O)NCCN1CCOCC1	inconclusive [inhibitor, single point]	
COP(=O)(OC)c1nc(-c2cccc3ccccc23)oc1N1CCCCC1	inconclusive [inhibitor, partial curve, poor fit]	
CC1CCN(CC(=O)N(C)c2c(N)n(Cc3ccccc3)c(=O)[nH]c2=O)CC1		inactive: 11.9%
O=C(NC1CCCC1)c1cccc(S(=O)(=O)N2CCCC2)c1	inconclusive [inhibitor, single point]	
CCc1cccc(OCC(=O)Nc2ccc(C)c(S(=O)(=O)N3CCCCCC3)c2)c1	inconclusive [inhibitor, single point]	
CCC(C)(C)n1nnnc1C(c1ccccn1)N1CCN(c2cccc(OC)c2)CC1 (configuration not stated)		inactive: -16.3%
COc1cc(/C=C/C(=O)c2ccccc2O)cc(OC)c1OC	inconclusive [inhibitor, partial curve, poor fit]	
CCCCCn1c(=S)[nH]c2cc(C(=O)N3CCCC3)ccc2c1=O	inconclusive [inhibitor, partial curve]	
COc1ccc(CC(=O)Nc2cc(Cl)ccc2O)cc1	inconclusive [inhibitor, single point]	
COC(=O)c1ccc(-c2ccco2)n1Cc1cccc(C)c1	inconclusive [inhibitor, single point]	
COc1ccc(C2CCCN2C(=O)Nc2cccc(C(C)=O)c2)cc1OC (configuration not stated)	inconclusive [inhibitor, single point]	
CCc1ccccc1NC(=O)c1ccc2c(c1)CCN2S(C)(=O)=O	inconclusive [inhibitor, single point]	
Oc1c(/C=N/c2ccccn2)sc2ccccc12		inactive: 0%
O=C(CCNS(=O)(=O)c1ccc(Cl)cc1)N1CCCC1		inactive: 16.1%
O=C(Nc1nc2ccccc2n1CCN1CCOCC1)c1ccc(COc2ccccc2Br)o1	inconclusive [inhibitor, full curve]	
CCc1ccc(CN2CCC(n3nccc3NC(=O)c3ccc4c(c3)OCO4)CC2)cc1	inconclusive [inhibitor, single point]	
Cc1ccc(N(C(=O)c2ccccc2Cl)C2=NC(C)CS2)c(C)c1 (configuration not stated)	inconclusive [inhibitor, partial curve, poor fit]	
CC1=NN(C(N)=S)C(=O)C1N=Nc1c(Cl)cc([N+](=O)[O-])cc1Cl (configuration not stated)	inconclusive [inhibitor, single point]	
Cc1c(C(=O)Nc2ccc(F)cc2)oc2ccc(S(=O)(=O)N3CC(C)CC(C)C3)cc12 (configuration not stated)	active: 10.4 µM	
